The list shows a part of the results.
target: T1, MBP-FoxP1dN (Mus musculus, UniProt P58462 326-579); experiment: PD-seq (MBP pull-down with sequencing); 20 mM Tris-HCl pH 7.5, 100 mM NaCl, 1.5 mM MgCl2, 0.4 uM protein, 0.1 uM dsDNA library, 30 min, room temperature, amylose pull-down; high values mean tight binding; settings: protein: recombinant; tags: His6-MBP; chain copies: 2; dsDNA, one strand shown
T1 sequence: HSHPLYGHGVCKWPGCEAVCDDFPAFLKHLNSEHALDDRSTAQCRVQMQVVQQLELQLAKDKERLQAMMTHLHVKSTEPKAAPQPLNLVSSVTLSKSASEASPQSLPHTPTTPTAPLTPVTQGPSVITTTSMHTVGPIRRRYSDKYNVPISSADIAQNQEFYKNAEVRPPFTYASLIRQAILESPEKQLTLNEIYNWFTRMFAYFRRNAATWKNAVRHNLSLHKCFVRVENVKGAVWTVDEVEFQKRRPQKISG
How it was run: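 Binding is given as reads-per-million enrichment, pull-down over input, with replicates pooled. The bait was an N-terminus-lacking mouse FoxP3 or FoxP1 fragment with a His6-MBP tag, expressed in E. coli and used at 0.4 µM with 0.1 µM Klenow-filled degenerate double-stranded DNA library for 30 min at room temperature in Tris pH 7.5 buffer with NaCl and MgCl2. Amylose resin pull-down with three washes was followed by proteinase K release, PCR barcoding and Illumina sequencing.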

Q: Which binding signal does the source give for “GATGATTGTTCTCCCAGCTGATGAATTTGTCACCTCGAGTAAACAAATTTTCCTAATCTTTCTGTTCAAGCGCCATCTAC” here?
A: 1.02 RPM ratio (pull-down/input)

Q: “GATGATTGTTCTCCCAGCTGATGAATTGAATGATTCGAGTAAACAAATTTTCCTAATCTTTCTGTTCAAGCGCCATCTAC” was tested. Which binding signal did it give?
A: 0.933 RPM ratio (pull-down/input)

Q: How did the binding signal turn out when “GATGATTGTTCTCCCAGCTGATGAATTATCCTCGTCGAGTAAACAAATTTTCCTAATCTTTCTGTTCAAGCGCCATCTAC” was run?
A: 0.914 RPM ratio (pull-down/input)

Q: With “GATGATTGTTCTCCCAGCTGATGAATTTAAGGAATCGAGTAAACAAATTTTCCTAATCTTTCTGTTCAAGCGCCATCTAC” as the sequence, how does the binding signal read?
A: 1.01 RPM ratio (pull-down/input)

Q: Which binding signal does the source give for “GATGATTGTTCTCCCAGCTGATGAATTGAGTGGGTCGAGTAAACAAATTTTCCTAATCTTTCTGTTCAAGCGCCATCTAC” here?
A: 0.807 RPM ratio (pull-down/input)

Q: “GATGATTGTTCTCCCAGCTGATGAATTCCGCGTGTCGAGTAAACAAATTTTCCTAATCTTTCTGTTCAAGCGCCATCTAC” was tested. Which binding signal did it give?
A: 0.837 RPM ratio (pull-down/input)

Q: “GATGATTGTTCTCCCAGCTGATGAATTCACAGAGTCGAGTAAACAAATTTTCCTAATCTTTCTGTTCAAGCGCCATCTAC” was tested. Which binding signal did it give?
A: 0.756 RPM ratio (pull-down/input)

Q: How did the binding signal turn out when “GATGATTGTTCTCCCAGCTGATGAATTCGTACACTCGAGTAAACAAATTTTCCTAATCTTTCTGTTCAAGCGCCATCTAC” was run?
A: 1.01 RPM ratio (pull-down/input)

Q: How did the binding signal turn out when “GATGATTGTTCTCCCAGCTGATGAATTATGAGATTCGAGTAAACAAATTTTCCTAATCTTTCTGTTCAAGCGCCATCTAC” was run?
A: 0.995 RPM ratio (pull-down/input)

Q: For “GATGATTGTTCTCCCAGCTGATGAATTTGAAGTGTCGAGTAAACAAATTTTCCTAATCTTTCTGTTCAAGCGCCATCTAC”, which binding signal is on record?
A: 0.887 RPM ratio (pull-down/input)

Q: For “GATGATTGTTCTCCCAGCTGATGAATTCAGGTACTCGAGTAAACAAATTTTCCTAATCTTTCTGTTCAAGCGCCATCTAC”, which binding signal is on record?
A: 0.846 RPM ratio (pull-down/input)

Q: For “GATGATTGTTCTCCCAGCTGATGAATTTCAAGCGTCGAGTAAACAAATTTTCCTAATCTTTCTGTTCAAGCGCCATCTAC”, which binding signal is on record?
A: 0.84 RPM ratio (pull-down/input)

Q: For “GATGATTGTTCTCCCAGCTGATGAATTTCTAGTCTCGAGTAAACAAATTTTCCTAATCTTTCTGTTCAAGCGCCATCTAC”, which binding signal is on record?
A: 0.822 RPM ratio (pull-down/input)

Q: For “GATGATTGTTCTCCCAGCTGATGAATTGTTGTTTTCGAGTAAACAAATTTTCCTAATCTTTCTGTTCAAGCGCCATCTAC”, which binding signal is on record?
A: 3.52 RPM ratio (pull-down/input)

Q: With “GATGATTGTTCTCCCAGCTGATGAATTTCTAGGATCGAGTAAACAAATTTTCCTAATCTTTCTGTTCAAGCGCCATCTAC” as the sequence, how does the binding signal read?
A: 0.9 RPM ratio (pull-down/input)

Q: Which binding signal does the source give for “GATGATTGTTCTCCCAGCTGATGAATTATTTGTATCGAGTAAACAAATTTTCCTAATCTTTCTGTTCAAGCGCCATCTAC” here?
A: 2 RPM ratio (pull-down/input)

Q: Which binding signal does the source give for “GATGATTGTTCTCCCAGCTGATGAATTGAGGAAATCGAGTAAACAAATTTTCCTAATCTTTCTGTTCAAGCGCCATCTAC” here?
A: 0.939 RPM ratio (pull-down/input)

Q: “GATGATTGTTCTCCCAGCTGATGAATTTATAGATTCGAGTAAACAAATTTTCCTAATCTTTCTGTTCAAGCGCCATCTAC” was tested. Which binding signal did it give?
A: 1.05 RPM ratio (pull-down/input)

Q: With “GATGATTGTTCTCCCAGCTGATGAATTTCGTGGCTCGAGTAAACAAATTTTCCTAATCTTTCTGTTCAAGCGCCATCTAC” as the sequence, how does the binding signal read?
A: 0.824 RPM ratio (pull-down/input)

Q: For “GATGATTGTTCTCCCAGCTGATGAATTAAGGAATTCGAGTAAACAAATTTTCCTAATCTTTCTGTTCAAGCGCCATCTAC”, which binding signal is on record?
A: 0.933 RPM ratio (pull-down/input)

Q: Which binding signal does the source give for “GATGATTGTTCTCCCAGCTGATGAATTTATACTGTCGAGTAAACAAATTTTCCTAATCTTTCTGTTCAAGCGCCATCTAC” here?
A: 1.11 RPM ratio (pull-down/input)

Q: Which binding signal does the source give for “GATGATTGTTCTCCCAGCTGATGAATTAGGGATTTCGAGTAAACAAATTTTCCTAATCTTTCTGTTCAAGCGCCATCTAC” here?
A: 0.917 RPM ratio (pull-down/input)

Q: With “GATGATTGTTCTCCCAGCTGATGAATTACCCCAATCGAGTAAACAAATTTTCCTAATCTTTCTGTTCAAGCGCCATCTAC” as the sequence, how does the binding signal read?
A: 1.04 RPM ratio (pull-down/input)

Q: How did the binding signal turn out when “GATGATTGTTCTCCCAGCTGATGAATTCCTTACGTCGAGTAAACAAATTTTCCTAATCTTTCTGTTCAAGCGCCATCTAC” was run?
A: 0.852 RPM ratio (pull-down/input)

Q: For “GATGATTGTTCTCCCAGCTGATGAATTTAACGTTTCGAGTAAACAAATTTTCCTAATCTTTCTGTTCAAGCGCCATCTAC”, which binding signal is on record?
A: 0.884 RPM ratio (pull-down/input)

Q: “GATGATTGTTCTCCCAGCTGATGAATTTTGAGATTCGAGTAAACAAATTTTCCTAATCTTTCTGTTCAAGCGCCATCTAC” was tested. Which binding signal did it give?
A: 0.971 RPM ratio (pull-down/input)

Q: How did the binding signal turn out when “GATGATTGTTCTCCCAGCTGATGAATTACGGAGTTCGAGTAAACAAATTTTCCTAATCTTTCTGTTCAAGCGCCATCTAC” was run?
A: 0.941 RPM ratio (pull-down/input)

Q: With “GATGATTGTTCTCCCAGCTGATGAATTCCCACACTCGAGTAAACAAATTTTCCTAATCTTTCTGTTCAAGCGCCATCTAC” as the sequence, how does the binding signal read?
A: 0.846 RPM ratio (pull-down/input)

Q: With “GATGATTGTTCTCCCAGCTGATGAATTGTTGCTTTCGAGTAAACAAATTTTCCTAATCTTTCTGTTCAAGCGCCATCTAC” as the sequence, how does the binding signal read?
A: 2.12 RPM ratio (pull-down/input)

Q: For “GATGATTGTTCTCCCAGCTGATGAATTGCAACTGTCGAGTAAACAAATTTTCCTAATCTTTCTGTTCAAGCGCCATCTAC”, which binding signal is on record?
A: 1.44 RPM ratio (pull-down/input)

Q: How did the binding signal turn out when “GATGATTGTTCTCCCAGCTGATGAATTTATTCCGTCGAGTAAACAAATTTTCCTAATCTTTCTGTTCAAGCGCCATCTAC” was run?
A: 1.11 RPM ratio (pull-down/input)

Q: With “GATGATTGTTCTCCCAGCTGATGAATTAACCAAATCGAGTAAACAAATTTTCCTAATCTTTCTGTTCAAGCGCCATCTAC” as the sequence, how does the binding signal read?
A: 1.03 RPM ratio (pull-down/input)

From paper PMC12820563, “FoxP3 forms a head-to-head dimer in vivo and stabilizes its multimerization on adjacent microsatellites”
